Data: publication PMC4336329 (PLoS ONE, 2015)
Hit rate of the full screen: of about 310,000 compounds, about 2,200 (0.71%) showed an effect of 50% or more. Effects have a minus sign here. Some of the results follow.

The molecules below were run against human ether-à-go-go-related gene (hERG) potassium channel (human, UniProt Q12809) (assay: primary screen, population patch clamp on CHO cells stably expressing hERG).
human ether-à-go-go-related gene (hERG) potassium channel, sequence (Q12809 whole entry, looked up): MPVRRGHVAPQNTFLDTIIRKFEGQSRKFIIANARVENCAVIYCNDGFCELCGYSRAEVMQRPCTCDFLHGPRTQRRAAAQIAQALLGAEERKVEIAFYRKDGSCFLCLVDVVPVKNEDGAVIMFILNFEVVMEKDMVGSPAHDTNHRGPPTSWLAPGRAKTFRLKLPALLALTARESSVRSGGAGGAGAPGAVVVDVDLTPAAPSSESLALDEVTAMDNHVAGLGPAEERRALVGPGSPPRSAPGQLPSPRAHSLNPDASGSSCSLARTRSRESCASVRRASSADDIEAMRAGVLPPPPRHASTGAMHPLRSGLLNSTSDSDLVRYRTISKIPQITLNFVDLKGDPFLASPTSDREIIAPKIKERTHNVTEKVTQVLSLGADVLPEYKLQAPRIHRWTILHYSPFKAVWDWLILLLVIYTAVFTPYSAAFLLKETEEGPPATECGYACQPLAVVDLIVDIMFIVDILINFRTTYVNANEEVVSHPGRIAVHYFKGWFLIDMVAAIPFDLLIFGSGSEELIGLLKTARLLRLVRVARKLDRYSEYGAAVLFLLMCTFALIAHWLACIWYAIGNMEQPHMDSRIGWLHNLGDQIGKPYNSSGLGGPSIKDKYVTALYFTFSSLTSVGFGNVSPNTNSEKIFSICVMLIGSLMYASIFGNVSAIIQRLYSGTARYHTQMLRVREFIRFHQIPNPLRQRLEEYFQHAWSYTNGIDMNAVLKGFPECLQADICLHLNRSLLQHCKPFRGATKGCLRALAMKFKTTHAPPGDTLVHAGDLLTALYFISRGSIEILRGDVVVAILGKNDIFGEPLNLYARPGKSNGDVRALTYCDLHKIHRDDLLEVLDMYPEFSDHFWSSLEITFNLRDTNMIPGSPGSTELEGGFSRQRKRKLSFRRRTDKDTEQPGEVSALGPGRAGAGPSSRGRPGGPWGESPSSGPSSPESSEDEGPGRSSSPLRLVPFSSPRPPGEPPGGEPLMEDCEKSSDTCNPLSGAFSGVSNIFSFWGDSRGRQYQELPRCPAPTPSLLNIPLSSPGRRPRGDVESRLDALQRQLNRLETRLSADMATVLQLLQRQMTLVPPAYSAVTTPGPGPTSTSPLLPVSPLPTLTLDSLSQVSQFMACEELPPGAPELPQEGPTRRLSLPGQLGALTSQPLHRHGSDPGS
`COc1cccc(N2CC(O)=C(c3nc4ccccc4c(=O)[nH]3)C2=N)c1` was tested, and the “hERG current change (%, negative = inhibition) at 1uM” value was 6.93%. In the case of `COc1ccc(OC)c2c1nc1n2CCS1`, the “hERG current change (%, negative = inhibition) at 1uM” value is reported as 4.74%. In the case of `CCc1nnc(NC(=O)c2c(C)nn(-c3ccccc3)c2Cl)s1`, the “hERG current change (%, negative = inhibition) at 1uM” value is reported as 13.1%. For `COc1cc(C(=O)NC(=S)NNC(=O)[C@H]2C[C@@H]2c2ccccc2)cc(OC)c1OC`, the “hERG current change (%, negative = inhibition) at 1uM” value was 11.6%. With `Cc1c(-c2nc(-c3ccc(C(C)(C)C)cc3)no2)n(C)oc1=O` the “hERG current change (%, negative = inhibition) at 1uM” value was 11.7%. In the case of `O=c1c2ccccc2nc(-c2ccco2)n1-c1nccs1`, the “hERG current change (%, negative = inhibition) at 1uM” value is reported as 2.4%. In the case of `Clc1ccc(/C=N/Nc2nc(Cl)nc3ccccc23)cc1`, the “hERG current change (%, negative = inhibition) at 1uM” value is reported as 9.9%. `COc1cc(OC)c(NC(=S)Nc2cccc(C)c2)cc1Cl` was tested, and the “hERG current change (%, negative = inhibition) at 1uM” value was 6.01%. For `Cc1noc(/C=C/N(C)C)c1S(=O)(=O)N1CCC(C(=O)O)CC1`, the “hERG current change (%, negative = inhibition) at 1uM” value was 19.9%. In the case of `COc1cccc(-c2nn(-c3ccccc3)cc2CN(C)C(C)c2ccncn2)c1` (centres unmarked), the “hERG current change (%, negative = inhibition) at 1uM” value is reported as 10.6%. `COc1ccc2oc(=N)c(C(=O)Nc3ccc(Br)cc3)cc2c1` was tested, and the “hERG current change (%, negative = inhibition) at 1uM” value was 13.9%. In the case of `O=C(c1cc(=O)c2cc(Cl)ccc2o1)N1CCN(Cc2ccccc2)CC1`, the “hERG current change (%, negative = inhibition) at 1uM” value is reported as -42.1%. In the case of `O=C(CNC(=S)N(Cc1ccccc1)Cc1cccnc1)NC1CCCCC1`, the “hERG current change (%, negative = inhibition) at 1uM” value is reported as 10.7%. In the case of `Cc1nnc(SCc2ccccc2)[nH]c1=O`, the “hERG current change (%, negative = inhibition) at 1uM” value is reported as 4.62%. In the case of `Cn1nccc1NC(=O)NC(=O)c1c(Cl)cccc1Cl`, the “hERG current change (%, negative = inhibition) at 1uM” value is reported as 8.82%. In the case of `COc1ccc(C(=O)Nc2ccc(N3CCC(C)CC3)cc2)cc1Br`, the “hERG current change (%, negative = inhibition) at 1uM” value is reported as 9.95%. In the case of `Cc1cc(OCC(O)CN)ccc1Cl` (centres unmarked), the “hERG current change (%, negative = inhibition) at 1uM” value is reported as 2.55%. In the case of `Cn1nnnc1SCc1nnc(-c2ccc(F)cc2)o1`, the “hERG current change (%, negative = inhibition) at 1uM” value is reported as -7.45%. For `O=C(c1ccccc1)c1ccc(-n2ccnc2)c([N+](=O)[O-])c1`, the “hERG current change (%, negative = inhibition) at 1uM” value was 10.1%. With `COc1ccccc1NC(=O)c1ccc(-c2ccc(Br)cc2)o1` the “hERG current change (%, negative = inhibition) at 1uM” value was 8.9%. With `CCN1CCN(Cc2c(C)[nH]c3ccc(OC)cc3c2=O)CC1` the “hERG current change (%, negative = inhibition) at 1uM” value was 11.2%. `COc1ccccc1N1C(=O)CC(N2CCN(c3ccc(Cl)cc3)CC2)C1=O` (centres unmarked) was tested, and the “hERG current change (%, negative = inhibition) at 1uM” value was 5.49%. In the case of `C=CCNC(=O)N1CCCC(C(=O)c2cccc(OC(C)C)c2)C1` (centres unmarked), the “hERG current change (%, negative = inhibition) at 1uM” value is reported as 17%. For `CCCCc1nc(NCCO)c(C#N)c2c1CCCC2`, the “hERG current change (%, negative = inhibition) at 1uM” value was -8.05%. With `CCOc1ccc(NC(=O)[C@@H](NC(=O)c2ccco2)C(C)C)cc1` the “hERG current change (%, negative = inhibition) at 1uM” value was 5.63%. In the case of `c1ccc(-c2ncc(CN3CCN(c4ccccn4)CC3)[nH]2)cc1`, the “hERG current change (%, negative = inhibition) at 1uM” value is reported as 5.09%. In the case of `CCOC(=O)c1cc(-c2ccccc2)sc1NC(=O)c1ccc(OC)c(OC)c1`, the “hERG current change (%, negative = inhibition) at 1uM” value is reported as 2.1%. For `COc1ccc(CCNC(=O)CCn2c(=O)c3ccccc3n(CC(=O)NCC3CCCO3)c2=O)cc1OC` (centres unmarked), the “hERG current change (%, negative = inhibition) at 1uM” value was 9.7%. In the case of `O=C1CCCN1CCC(=O)N1CCCC(Nc2ccc(F)c(F)c2)C1` (centres unmarked), the “hERG current change (%, negative = inhibition) at 1uM” value is reported as 4.57%. With `CCOC(=O)NC(=O)/C(C#N)=N\Nc1cccc(OC)c1` the “hERG current change (%, negative = inhibition) at 1uM” value was 13.7%. In the case of `O=C(Nc1ccc(Cl)c(Cl)c1)C1CCCCC1`, the “hERG current change (%, negative = inhibition) at 1uM” value is reported as 4.4%. With `Cc1cccc(C2(c3cccc(C)c3)OC(=O)c3ccccc32)c1` the “hERG current change (%, negative = inhibition) at 1uM” value was 13.2%. For `Clc1cccc(Cl)c1CSc1nnc(-c2ccncc2)s1`, the “hERG current change (%, negative = inhibition) at 1uM” value was 15.8%. `CCOc1cc(CNC2CCCC2)ccc1OCc1ccccc1Cl.Cl` was tested, and the “hERG current change (%, negative = inhibition) at 1uM” value was 7.65%. In the case of `Cc1ccc(CNS(=O)(=O)c2ccccc2[N+](=O)[O-])cc1`, the “hERG current change (%, negative = inhibition) at 1uM” value is reported as 0.107%. `O=C(N/N=C/c1ccc(O)cc1)/C(=C/c1ccccc1)CCO` was tested, and the “hERG current change (%, negative = inhibition) at 1uM” value was -4%. With `CCOc1ccccc1/C=C(\C#N)C(=O)NC1CC1` the “hERG current change (%, negative = inhibition) at 1uM” value was 18.6%. `Cc1ccc(F)cc1NC(=O)C1CCN(c2cnccn2)CC1` was tested, and the “hERG current change (%, negative = inhibition) at 1uM” value was 7.97%. For `CCN(CC)C(=O)/C(NC(=O)c1ccccc1)=C(/Sc1ncccn1)c1ccccc1`, the “hERG current change (%, negative = inhibition) at 1uM” value was 8.38%. For `O=C(c1ccccc1)N1N=C(c2ccccc2O)CC1c1ccccc1` (centres unmarked), the “hERG current change (%, negative = inhibition) at 1uM” value was 8.14%. In the case of `CN(C)CCCNC(=O)/C=C/c1ccc2c(c1)OCO2`, the “hERG current change (%, negative = inhibition) at 1uM” value is reported as 1.68%. In the case of `CCn1c(CC(=O)Nc2ccc(C)c(Cl)c2)nnc1SCc1ccc(Cl)c(Cl)c1`, the “hERG current change (%, negative = inhibition) at 1uM” value is reported as -0.657%. In the case of `Cc1ccccc1-c1nnc2c3ccccc3c(C)nn12`, the “hERG current change (%, negative = inhibition) at 1uM” value is reported as 12.5%. With `O=C(Nc1ccccn1)c1cccs1` the “hERG current change (%, negative = inhibition) at 1uM” value was 2.63%. `O=C(O)CNc1nc(-c2ccccc2)c2cc([N+](=O)[O-])ccc2n1` was tested, and the “hERG current change (%, negative = inhibition) at 1uM” value was 19.4%. With `O=[N+]([O-])c1cc(-c2n[nH]c(-c3ccccc3)n2)cc([N+](=O)[O-])c1` the “hERG current change (%, negative = inhibition) at 1uM” value was 12.2%. `Cc1ccc(-c2nnc(SCC(=O)N3CCCc4ccccc43)n2N)cc1` was tested, and the “hERG current change (%, negative = inhibition) at 1uM” value was 8.76%. `Cc1[nH]c2ccccc2c1SCC(=O)N1CCCCC1` was tested, and the “hERG current change (%, negative = inhibition) at 1uM” value was 17.7%. `CCOC(=O)C1CC2CC(C1)CN(C(=O)C1CCCCC1)C2` (centres unmarked) was tested, and the “hERG current change (%, negative = inhibition) at 1uM” value was 11.2%. In the case of `CCOc1cc(CN2CCN(c3cccc(C(F)(F)F)c3)CC2)ccc1O`, the “hERG current change (%, negative = inhibition) at 1uM” value is reported as -2.82%. For `C=CCn1cccc(C(=O)Nc2ccc(C)c(Cl)c2)c1=O`, the “hERG current change (%, negative = inhibition) at 1uM” value was 6.75%. With `COc1ccc(C(C(=O)OC(C)CN(C)C)c2ccccc2)cc1.Cl` (centres unmarked) the “hERG current change (%, negative = inhibition) at 1uM” value was -8.15%. `COC(=O)c1ccccc1-c1ccc(/C=C2\C(=O)N(c3ccccc3)N=C2c2ccccc2)o1` was tested, and the “hERG current change (%, negative = inhibition) at 1uM” value was 5.03%. In the case of `CC(=O)c1ccc(NC(=O)C2CCN(S(=O)(=O)c3cccs3)CC2)cc1`, the “hERG current change (%, negative = inhibition) at 1uM” value is reported as 5.76%. With `c1ccc(-n2nnnc2Oc2cccc3cccnc23)cc1` the “hERG current change (%, negative = inhibition) at 1uM” value was 14.3%. In the case of `O=C(c1ccco1)N1CCN(c2nc(-c3ccc(F)cc3)cs2)CC1`, the “hERG current change (%, negative = inhibition) at 1uM” value is reported as 1.54%. With `O=C(CNC(=O)c1ccc(Br)o1)NNC(=O)c1cccc(Cl)c1` the “hERG current change (%, negative = inhibition) at 1uM” value was -9.56%. In the case of `Cc1cccc(C)c1NC1=C(Cl)C(=O)OC1OC(=O)c1ccccc1` (centres unmarked), the “hERG current change (%, negative = inhibition) at 1uM” value is reported as 13.9%. For `CCc1ccc(C2NC(=S)NC3=C2C(=O)N(c2ccccc2OC)C(c2ccc(CC)cc2)N3)cc1` (centres unmarked), the “hERG current change (%, negative = inhibition) at 1uM” value was 2.32%.
